According to paper PMC5382322:
Results are given in words; binding and its absence hold for the method and conditions named. In cells and extracts the contact can be indirect. Some binding calls cover weakened binding; strength is not graded here. For some of these results: Sequences can lack the tags named with a protein.

The chains behind the UniProt entries cited, without tags or fusion partners.
UniProt O97159: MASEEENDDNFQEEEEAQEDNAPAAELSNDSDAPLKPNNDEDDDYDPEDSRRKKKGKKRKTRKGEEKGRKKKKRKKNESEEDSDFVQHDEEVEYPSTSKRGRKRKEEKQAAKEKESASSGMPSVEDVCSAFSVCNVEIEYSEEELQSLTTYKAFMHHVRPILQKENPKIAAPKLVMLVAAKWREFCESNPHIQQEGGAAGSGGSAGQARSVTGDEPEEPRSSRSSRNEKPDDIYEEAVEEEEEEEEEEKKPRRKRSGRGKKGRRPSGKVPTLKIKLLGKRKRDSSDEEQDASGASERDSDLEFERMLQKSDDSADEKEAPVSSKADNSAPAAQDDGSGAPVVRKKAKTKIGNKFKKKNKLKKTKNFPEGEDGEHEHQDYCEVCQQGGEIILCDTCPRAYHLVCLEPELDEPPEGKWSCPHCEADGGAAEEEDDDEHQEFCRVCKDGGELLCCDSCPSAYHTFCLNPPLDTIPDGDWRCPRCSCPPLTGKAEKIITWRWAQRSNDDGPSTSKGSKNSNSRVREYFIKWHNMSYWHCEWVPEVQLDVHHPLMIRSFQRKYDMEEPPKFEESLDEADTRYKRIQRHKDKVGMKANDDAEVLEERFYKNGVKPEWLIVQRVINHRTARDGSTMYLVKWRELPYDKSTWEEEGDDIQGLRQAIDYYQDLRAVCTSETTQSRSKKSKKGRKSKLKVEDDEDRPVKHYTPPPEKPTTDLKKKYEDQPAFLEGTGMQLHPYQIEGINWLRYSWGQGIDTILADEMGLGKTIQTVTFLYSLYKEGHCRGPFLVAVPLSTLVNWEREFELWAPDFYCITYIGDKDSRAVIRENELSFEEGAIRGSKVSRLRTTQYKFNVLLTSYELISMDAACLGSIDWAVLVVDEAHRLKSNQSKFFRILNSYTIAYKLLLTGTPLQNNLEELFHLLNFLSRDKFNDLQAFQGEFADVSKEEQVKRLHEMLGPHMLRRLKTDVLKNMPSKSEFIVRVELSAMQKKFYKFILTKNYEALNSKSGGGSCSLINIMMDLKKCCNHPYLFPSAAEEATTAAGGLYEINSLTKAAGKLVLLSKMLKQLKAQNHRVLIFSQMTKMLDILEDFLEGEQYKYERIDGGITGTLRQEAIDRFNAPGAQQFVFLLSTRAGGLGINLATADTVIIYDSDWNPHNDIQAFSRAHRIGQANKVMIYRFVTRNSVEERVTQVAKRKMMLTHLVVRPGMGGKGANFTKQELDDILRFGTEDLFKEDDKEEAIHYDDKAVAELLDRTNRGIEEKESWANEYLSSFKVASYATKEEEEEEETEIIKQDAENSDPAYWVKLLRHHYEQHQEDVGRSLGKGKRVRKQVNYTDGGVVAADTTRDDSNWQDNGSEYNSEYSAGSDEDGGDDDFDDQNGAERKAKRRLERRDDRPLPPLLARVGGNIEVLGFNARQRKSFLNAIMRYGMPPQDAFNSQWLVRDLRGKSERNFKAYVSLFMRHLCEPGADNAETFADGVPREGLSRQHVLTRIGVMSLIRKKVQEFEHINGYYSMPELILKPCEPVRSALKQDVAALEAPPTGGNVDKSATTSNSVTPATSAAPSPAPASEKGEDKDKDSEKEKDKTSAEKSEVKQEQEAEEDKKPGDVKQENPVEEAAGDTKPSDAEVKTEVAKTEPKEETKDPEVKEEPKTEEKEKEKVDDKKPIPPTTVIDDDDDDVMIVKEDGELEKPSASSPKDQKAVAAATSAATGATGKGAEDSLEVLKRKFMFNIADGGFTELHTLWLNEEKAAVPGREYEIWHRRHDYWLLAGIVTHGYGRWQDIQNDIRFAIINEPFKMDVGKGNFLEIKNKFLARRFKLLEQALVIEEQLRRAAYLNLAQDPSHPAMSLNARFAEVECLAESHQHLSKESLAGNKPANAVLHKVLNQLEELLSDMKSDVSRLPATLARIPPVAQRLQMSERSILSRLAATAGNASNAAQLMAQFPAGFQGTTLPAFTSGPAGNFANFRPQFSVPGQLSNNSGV

Columns and labels:
[1] = target: dMi-2 (Drosophila Mi-2), endogenous (Drosophila (endogenous in S2 cells)) (UniProt O97159); test: co-IP; endogenous proteins; 500 ug S2 nuclear extract from untreated or ecdysone-exposed (20HE) cells; rat monoclonal anti-dMi-2 antibody 4D8 on Protein G Sepharose, 3 h at 4 °C; washed with buffer D (100 mM KCl) with 0.02% NP40; western blot
[2] = target: T1, N-terminally HA-tagged Ultraspiracle (HA-USP) (Drosophila) (UniProt P20153); test: co-IP; Sf9 cells co-infected with baculoviruses, untreated or exposed to ecdysone; whole-cell extract on HA agarose, 4 h at 4 °C; washed five times with Lysis Buffer (20 mM Hepes pH 7.6, 200 mM KCl, 0.1% NP40, 10% glycerol); western blot
T1 sequence: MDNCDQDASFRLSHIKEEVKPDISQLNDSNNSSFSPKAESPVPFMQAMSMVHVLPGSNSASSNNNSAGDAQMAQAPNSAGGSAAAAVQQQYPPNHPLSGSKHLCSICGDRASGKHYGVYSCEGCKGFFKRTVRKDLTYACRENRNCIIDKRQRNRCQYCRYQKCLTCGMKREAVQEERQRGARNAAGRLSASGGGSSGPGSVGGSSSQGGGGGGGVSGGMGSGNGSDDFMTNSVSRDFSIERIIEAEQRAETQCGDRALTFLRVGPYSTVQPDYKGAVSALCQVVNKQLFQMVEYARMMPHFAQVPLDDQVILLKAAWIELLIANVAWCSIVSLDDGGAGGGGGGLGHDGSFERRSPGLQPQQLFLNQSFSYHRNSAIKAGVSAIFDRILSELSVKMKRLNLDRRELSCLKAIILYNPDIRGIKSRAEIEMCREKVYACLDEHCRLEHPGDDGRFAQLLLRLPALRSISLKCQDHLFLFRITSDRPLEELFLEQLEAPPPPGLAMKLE

dMi-2-FLAG (Drosophila) = dMi-2-FLAG (Drosophila) (UniProt O97159); test: co-IP; Sf9 cells co-infected with baculoviruses, untreated or exposed to ecdysone; whole-cell extract on FLAG agarose, 4 h at 4 °C; washed five times with Lysis Buffer (20 mM Hepes pH 7.6, 200 mM KCl, 0.1% NP40, 10% glycerol); western blot
[3] = target: dMi-2-FLAG (Drosophila), O97159; test: as above; conditions: remark: other sources report otherwise

B1: ecdysone receptor (EcR), endogenous (receptor, UniProt P34021 1-878)
chain: MKRRWSNNGGFMRLPEESSSEVTSSSNGLVLPSGVNMSPSSLDSHDYCDQDLWLCGNESGSFGGSNGHGLSQQQQSVITLAMHGCSSTLPAQTTIIPINGNANGNGGSTNGQYVPGATNLGALANGMLNGGFNGMQQQIQNGHGLINSTTPSTPTTPLHLQQNLGGAGGGGIGGMGILHHANGTPNGLIGVVGGGGGVGLGVGGGGVGGLGMQHTPRSDSVNSISSGRDDLSPSSSLNGYSANESCDAKKSKKGPAPRVQEELCLVCGDRASGYHYNALTCEGCKGFFRRSVTKSAVYCCKFGRACEMDMYMRRKCQECRLKKCLAVGMRPECVVPENQCAMKRREKKAQKEKDKMTTSPSSQHGGNGSLASGGGQDFVKKEILDLMTCEPPQHATIPLLPDEILAKCQARNIPSLTYNQLAVIYKLIWYQDGYEQPSEEDLRRIMSQPDENESQTDVSFRHITEITILTVQLIVEFAKGLPAFTKIPQEDQITLLKACSSEVMMLRMARRYDHSSDSIFFANNRSYTRDSYKMAGMADNIEDLLHFCRQMFSMKVDNVEYALLTAIVIFSDRPGLEKAQLVEAIQSYYIDTLRIYILNRHCGDSMSLVFYAKLLSILTELRTLGNQNAEMCFSLKLKNRKLPKFLEEIWDVHAIPPSVQSHLQITQEENERLERAERMRASVGGAITAGIDCDSASTSAAAAAAQHQPQPQPQPQPSSLTQNDSQHQTQPQLQPQLPPQLQGQLQPQLQPQLQTQLQPQIQPQPQLLPVSAPVPASVTAPGSLSAVSTSSEYMGGSAAIGPITPATTSSITAAVTASSTTSAVPMGNGVGVGVGVGGNVSMYANAQTAMALMGVALHSHQEQLIGGVAVKSEHSTTA
- binding [1]: binds

B2: untagged EcR (baculovirus-expressed) (receptor, UniProt P34021 1-878)
chain: B1 chain
- binding [2]: binds
- binding (dMi-2-FLAG (Drosophila)): binds

B3: N-terminally HA-tagged Ultraspiracle (HA-USP), P20153 1-508 (receptor)
chain: T1 sequence
- binding [3]: no binding
